Hit rate of the full screen: of about 310,000 compounds, about 2,200 (0.71%) showed an effect of 50% or more. The effect is printed as a negative number. The list shows a part of the results.
Biological target: human ether-à-go-go-related gene (hERG) potassium channel (human, UniProt Q12809)
Test: primary screen, population patch clamp on CHO cells stably expressing hERG

Sequence of human ether-à-go-go-related gene (hERG) potassium channel (Q12809 whole entry, looked up): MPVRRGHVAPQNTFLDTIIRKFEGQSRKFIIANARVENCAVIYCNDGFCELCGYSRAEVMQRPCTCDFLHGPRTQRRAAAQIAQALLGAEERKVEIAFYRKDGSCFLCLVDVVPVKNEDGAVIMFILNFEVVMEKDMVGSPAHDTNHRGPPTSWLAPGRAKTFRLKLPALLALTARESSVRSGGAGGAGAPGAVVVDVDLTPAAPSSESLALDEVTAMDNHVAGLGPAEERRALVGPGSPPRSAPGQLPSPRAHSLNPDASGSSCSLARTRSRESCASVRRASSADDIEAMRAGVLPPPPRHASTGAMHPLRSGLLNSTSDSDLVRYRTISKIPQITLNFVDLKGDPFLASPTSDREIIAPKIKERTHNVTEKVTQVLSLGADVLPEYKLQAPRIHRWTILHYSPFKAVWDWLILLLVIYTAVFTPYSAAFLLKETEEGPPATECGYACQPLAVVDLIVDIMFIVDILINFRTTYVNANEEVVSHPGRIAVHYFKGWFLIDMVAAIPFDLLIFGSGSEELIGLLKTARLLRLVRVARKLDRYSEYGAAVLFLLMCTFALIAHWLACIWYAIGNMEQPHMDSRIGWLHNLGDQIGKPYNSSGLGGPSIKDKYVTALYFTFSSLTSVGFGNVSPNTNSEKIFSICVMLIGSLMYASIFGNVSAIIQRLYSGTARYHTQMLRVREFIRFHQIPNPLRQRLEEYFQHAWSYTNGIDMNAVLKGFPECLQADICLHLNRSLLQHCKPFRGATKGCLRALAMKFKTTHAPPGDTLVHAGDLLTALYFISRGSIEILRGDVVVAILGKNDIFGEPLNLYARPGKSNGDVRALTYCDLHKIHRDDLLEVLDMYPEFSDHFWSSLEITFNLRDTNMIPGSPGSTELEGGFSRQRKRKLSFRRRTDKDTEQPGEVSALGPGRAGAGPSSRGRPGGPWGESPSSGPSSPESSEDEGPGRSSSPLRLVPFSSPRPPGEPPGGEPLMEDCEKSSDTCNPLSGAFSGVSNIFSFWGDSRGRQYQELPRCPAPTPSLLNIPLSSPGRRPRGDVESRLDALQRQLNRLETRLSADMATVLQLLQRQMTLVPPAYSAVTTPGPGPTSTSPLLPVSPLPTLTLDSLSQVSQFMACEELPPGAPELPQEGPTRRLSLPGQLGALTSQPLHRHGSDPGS

| SMILES | hERG current change (%, negative = inhibition) at 1uM |
| --- | --- |
| CSc1ccc(C(=O)NC2CCSc3ccccc32)cc1 (centres unmarked) | 13.7% |
| Cc1cccc(C(=O)c2cn[nH]c2-c2ccc(C)cc2O)c1 | 19.4% |
| COCC(C)NC(=O)C1CC(c2cccc(Br)c2)=NO1 (centres unmarked) | 14.7% |
| Cc1cccc(Oc2coc3cc(OC(=O)c4cccs4)ccc3c2=O)c1 | 2.01% |
| Cc1noc(NC(=O)c2c(-c3c(Cl)cccc3Cl)noc2C)c1[N+](=O)[O-] | 9.64% |
| CS(=O)(=O)N1CCN(c2ccnc3cc(Cl)ccc23)CC1 | -81.3% |
| Cc1ccc(NC(=O)CN(C)C2CCCCC2)cc1Cl.O=C(O)C(=O)O | 11.2% |
| COc1ccc(CCNC(=O)C(=O)NCc2ccc(C(C)C)cc2)cc1OC | 12.5% |
| Cc1ccc(C(=O)/C=C/Nc2ccc([N+](=O)[O-])cc2Br)cc1 | 7% |
| COc1ccc(C2CC(=O)OC3=C2C(=O)CC(C)(C)C3)c(OC)c1 (centres unmarked) | -2.47% |
| O=C(NC(=S)N1CCN(c2nc(-c3ccccc3)cs2)CC1)c1cncc(Br)c1 | 34.7% |
| O=C(CCSCCc1ccccn1)Nc1ccccn1 | 16.1% |
| O=C(O)/C=C/c1cnc[nH]1 | 17% |
| O=C(O)CC(NNC(=O)c1ccccc1)C(=O)Nc1ccc([N+](=O)[O-])cc1 (centres unmarked) | -2.38% |
| O=C(Cn1c(-c2ccccn2)nc2ccccc21)N/N=C/c1ccccn1 | 2.58% |
| COCCCn1c(C(=O)N2CC(C)OC(C)C2)cc2c(=O)n3cccc(C)c3nc21 (centres unmarked) | 12.8% |
| O=c1[nH]c(=O)n(Cc2ccc(F)cc2)c(O)c1C=NCCCO | 10.7% |
| CCc1nnc(NS(=O)(=O)c2ccc(NC(=O)/C=C/C(=O)O)cc2)s1 | 17% |
| COCCn1cnc2c1c(=O)n(CC(=O)OCC(=O)NCCCc1ccccc1)c(=O)n2Cc1ccccc1 | 1.97% |
| Cc1cc(C)c(C(=O)CN2C(=O)NC3(CCC(C)CC3)C2=O)cc1C (centres unmarked) | 9.13% |
| CC(C)(C)C(=O)NCc1ccc(C(=O)CSc2nnc(C3CC3)n2C2CC2)s1 | 11.9% |
| Cc1ccc(C(=O)NCC(=O)NCC(=O)OCc2ccc(Oc3ccc([N+](=O)[O-])cc3)cc2)cc1 | 6.47% |
| Cc1ccc(/C=C/C(=O)N2CCN(c3ccc(F)cc3)CC2)o1 | 12% |

| SMILES | hERG current change (%, negative = inhibition) at 1uM |
| --- | --- |
| CC(NC(=O)CN(C)Cc1cccs1)c1ccccc1 (centres unmarked) | 13.6% |
| COc1ccc(-c2ccc(SCC(=O)N3CCN(c4ccccc4)CC3)nn2)cc1 | 6.99% |
| CSc1nc(C)cc(Oc2ccccc2)n1 | 1.37% |
| CCC(C)[C@H](NC(=O)C1CC(=O)N(c2ccc(OC)cc2)C1)C(=O)NC1CCCC1 (some centres unmarked) | 9.22% |
| CN(C(=O)c1ccccn1)C1(C(=O)NC2CCCCC2)CCCCC1 | 11.6% |
| Cc1cc(NC(=O)C(=O)c2c(C)[nH]c3ccccc23)no1 | 7.01% |
| Clc1ccc(N=c2ssnc2Cl)nc1 | 8.42% |
| CC(Sc1nc(N(C)C)nc(N2CCOCC2)n1)C(=O)Nc1ccccc1 (centres unmarked) | 14.7% |
| Cc1cc(C)n(Cc2ccc(C(=O)O)o2)n1 | 14.4% |
| Cc1ccc(C)c(CN2CCC(CNC(=O)Nc3ccc(Br)cc3F)CC2)c1 | 1.12% |
| COC(=O)c1sccc1NC(=O)CSc1ccccc1NS(=O)(=O)c1cc(Cl)ccc1Cl | 18.3% |
| CC12CN3CC(C)(CN(C1)C3c1cccs1)C2=O (centres unmarked) | 7.73% |
| COc1cccc(NC(=O)CN(C)C(C)C(=O)Nc2ccc(C(C)=O)cc2)c1 (centres unmarked) | 2.85% |
| O=C(c1ccc(F)cc1)c1cn[nH]c1-c1ccccc1O | 8.43% |
| COC(=O)c1c(NC(=O)CN2CCN(C(=O)c3ccco3)CC2)c2c(C)cccc2n1C | 5.88% |
| COc1ccc(C(=O)Nc2cc(C(=O)O)cc(C(=O)O)c2)cc1Cl | 6.3% |
| O=S(=O)(NCCSc1nnc(-c2ccco2)n1-c1ccccc1)c1ccccc1 | 3.81% |
| O=C1c2ccccc2C(O)N1Cc1cccs1 (centres unmarked) | 8.16% |
| OCC#Cc1cnc2ccccc2c1 | 1.38% |
| Cc1cccc(C)c1NC(=O)CNC(=O)c1ccc2c(c1)OCCO2 | 11.7% |
| CCOc1ccc(OCC)c(NC(=O)CN2CCN(c3cc(C)ccc3C)CC2)c1.Cl | 4.54% |
| O=C1CC(Sc2ncccn2)C(=O)N1c1ccccc1 (centres unmarked) | 8.64% |
| O=C(O)c1ncc(Cl)c(Cl)c1Cl | 8.65% |

| SMILES | hERG current change (%, negative = inhibition) at 1uM |
| --- | --- |
| CC(=O)Nc1ccc(NC(=O)Nc2ccc3c(c2)N(C)C(=O)CS3)cc1 | 8.86% |
| COC(=O)CSc1n[nH]c(-c2ccncc2)n1 | 16.7% |
| Cc1[nH]c2ccc(OC(=O)N3CCOCC3)cc2c1C(=O)OC(C)C | 5.49% |
| O=C(CSc1nc2ccccc2c(=O)[nH]1)Nc1ccc(Br)cc1 | 9.82% |
| Cc1ccc(OCCOC(=O)CCc2nc3ccccc3c(=O)[nH]2)cc1 | 14.5% |
| COc1ccc(S(=O)(=O)N2CCCCC2)cc1NC(=O)Cc1cccs1 | 9.97% |
| COc1ccccc1C(CNC(=O)c1ccc(S(=O)(=O)N2CCCCC2)cc1)N(C)C (centres unmarked) | 5.72% |
| CCc1ccc(C(=O)COC(=O)C(Cc2ccccc2)NC(=O)C2CCC(C)CC2)cc1 (centres unmarked) | 4.79% |
| COc1ccc(N2CC(C(=O)OCC(=O)Nc3cccc(C)c3)CC2=O)cc1 (centres unmarked) | 5.54% |
| N/C(=N\c1nc2ccccc2o1)NC(=O)c1ccc(F)cc1 | -4.74% |
| O=C1c2ccc(-c3ccc4c(c3)C(=O)N(CCO)C4=O)cc2C(=O)N1CCO | 12.8% |
| O=C(C[n+]1cc(-c2ccc(F)cc2)n2c1CCC2)Nc1nc(-c2ccc(F)cc2)cs1.[Cl-] | -3.27% |
| CCc1noc(C)c1C(=O)Nc1nc2ccc(OC)cc2s1 | -0.289% |
| O=C(NCC1(N2CCCCC2)CCCCC1)c1ccc(NS(=O)(=O)c2ccc(F)cc2)cc1 | -5.49% |
| O=C(CC1C(=O)NCCN1Cc1c(F)cccc1Cl)NCCCn1cccn1 (centres unmarked) | 9.02% |
| CCOC(=O)C(C)n1cnc2scc(-c3ccc(C)c(C)c3)c2c1=O (centres unmarked) | 11% |
| CCn1c(CN2CCN(c3cccc(C)c3C)CC2)n[nH]c1=S | 8.22% |
| COC(=O)CN1C(=O)[C@H]2[C@@H](C3CC3)N3C(=O)CN(Cc4ccc(-c5ccccc5)cc4)C(=O)[C@@]3(Cc3ccccc3)[C@H]2C1=O | 15.6% |
| CC(OC(=O)CN1C(=O)C2CC=CCC2C1=O)C(=O)Nc1ccc(F)cc1Cl (centres unmarked) | 2.75% |
| Cc1ccc(-n2cc(CN3CCN(Cc4nccn4C)CC3)c(-c3cccc(C)c3)n2)cc1 | 3.93% |
| CN(CC(=O)Nc1cccc(C#N)c1)Cc1ccc(Cl)cc1 | -17.9% |
| O=C(Cn1nnc2ccccc21)NNC(=O)c1ccccc1 | 16.4% |
| CCOC(=O)c1cc(-c2ccc(F)cc2)n(CC(=O)Nc2nccs2)c1C | 4.03% |

| SMILES | hERG current change (%, negative = inhibition) at 1uM |
| --- | --- |
| O=C(NC1CCCCC1)N1CCN(c2ccc([N+](=O)[O-])cc2)CC1 | -7.25% |
| CC(=O)Nc1ccc(C(=O)NNC(=O)CCCCC(=O)NNC(=O)c2ccc(NC(C)=O)cc2)cc1 | 4.15% |
| O=C(NC1CCCCC1)c1cc(C(=O)c2ccccc2Br)c[nH]1 | 10.6% |
| COc1cccc(OC)c1OCC(C)CNCC1CCCO1.Cl (centres unmarked) | 7.67% |
| Cc1cccc(Oc2ccccc2NS(=O)(=O)c2ccc(CCC(=O)O)cc2)c1 | 4.01% |
| CCOC(=O)C1=C(O)/C(=C/c2ccc(OCC(=O)O)c(OCC)c2)SC1=Nc1ccc(C)cc1 | 16.6% |
| Cl.OCCCNCc1ccc(Cl)cc1Cl | 10.5% |
| O=CN1CCN(C(=O)c2ccc(-c3nc4ccccc4s3)s2)CC1 | 3.36% |
| CCCN(Cc1cc2cc(OC)ccc2[nH]c1=O)C(=O)c1ccncc1 | -1.37% |
| O=C(Cc1cccs1)Nc1ccccc1C(=O)O | 4.62% |
| CNC(C)C#Cc1ccc2c(=O)c3c(OC)cccc3oc2c1 (centres unmarked) | 11% |
| O=C(NCCNS(=O)(=O)c1cccc(C(F)(F)F)c1)c1cc(OCC(F)(F)F)ccc1OCC(F)(F)F | 12.2% |
| CN1CCN(NC(=O)c2ccc(F)cc2)CC1 | 17.8% |
| Cn1cnnc1SCC(=O)Nc1ccc(S(N)(=O)=O)cc1 | 17.6% |
| Cc1[nH]n(C)c(=O)c1C(=O)c1c(-c2ccccc2Cl)noc1C | 12.4% |
| COc1ccccc1OCCNC1CCCC1 | 0.73% |
| Cc1cc(C)c(NC(=O)c2ccccc2CCc2ccccc2)c(C)c1 | 3.92% |
| Cc1ccc(S(=O)(=O)NCCCN2CCCC2)cc1 | 8.21% |
| O=C(CCn1nc(-c2ccc(Cl)cc2)c2ccccc2c1=O)NCC1CCCO1 (centres unmarked) | -1.18% |
| O=C(Cn1cnc2ccccc21)NCCCN1CCOCC1 | -9.03% |

From PMC4336329 (PLoS ONE, 2015)
